Data: article PMC6919601, “Identification of Plasmodium dipeptidyl aminopeptidase allosteric inhibitors by high throughput screening” (PLoS ONE, 2019)
Values joined by “and” are separate entries in the source; they are usually repeats but may differ in a detail not shown here. Equal entries are not always repeated. About 230 (0.21%) of roughly 110,000 compounds showed an effect of 50% or more. Some of the results follow.

The compounds below were run against DPAP1 (Plasmodium falciparum, UniProt Q8IIJ9) (assay: primary screen, percent inhibition; read by cleavage of a fluorogenic dipeptide substrate; higher = more effect of the substance).
Sequence of DPAP1 (Q8IIJ9 whole entry, looked up): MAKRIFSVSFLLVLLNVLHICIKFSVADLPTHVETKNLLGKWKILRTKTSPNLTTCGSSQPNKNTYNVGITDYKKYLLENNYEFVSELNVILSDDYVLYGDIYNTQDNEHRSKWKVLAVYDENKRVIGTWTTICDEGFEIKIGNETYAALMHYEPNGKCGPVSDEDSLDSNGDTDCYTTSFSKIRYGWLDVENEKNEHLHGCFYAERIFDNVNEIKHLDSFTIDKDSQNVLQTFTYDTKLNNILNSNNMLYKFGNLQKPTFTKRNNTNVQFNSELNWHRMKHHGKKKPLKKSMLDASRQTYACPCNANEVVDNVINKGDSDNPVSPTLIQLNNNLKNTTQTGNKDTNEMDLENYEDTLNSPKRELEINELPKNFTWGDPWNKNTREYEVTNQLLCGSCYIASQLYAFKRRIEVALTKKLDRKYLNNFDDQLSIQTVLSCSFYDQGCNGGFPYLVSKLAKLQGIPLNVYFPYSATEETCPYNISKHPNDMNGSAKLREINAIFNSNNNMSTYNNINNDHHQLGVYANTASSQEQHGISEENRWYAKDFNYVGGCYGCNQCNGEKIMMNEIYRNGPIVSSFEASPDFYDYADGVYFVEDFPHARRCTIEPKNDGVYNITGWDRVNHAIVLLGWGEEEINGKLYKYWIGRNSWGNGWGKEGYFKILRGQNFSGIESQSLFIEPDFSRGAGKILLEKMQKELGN
Design: species or system P. falciparum D10 trophozoite lysates; single well
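Further: 30 min substrate incubation versus DMSO and 10 µM JCP410 controls.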

| SMILES | % Inhibition @ 10 uM |
| --- | --- |
| CC(=O)C1C2CC(S)=NC1(C)Oc1ccc(Br)cc12 (stereo not shown) | -1.8% |
| CCOc1ccccc1CNCc1cccnc1 | -3.95% |
| COc1ccc(OC)c(CNCCc2ccccc2)c1 | 0.661% |
| COc1cc2nc(SCc3cc(=O)n4ccccc4n3)n3nc(-c4ccccc4)nc3c2cc1OC | -2.29% |
| CN(CC(=O)NCCCc1ccccc1)S(=O)(=O)c1c[nH]cn1 | -3.53% |
| N#CCNC(=O)[C@@H](Cc1c(F)cccc1F)NC(=O)OCc1ccccc1 | -3.14% |
| Cc1nn(-c2ccccc2)c(N)c1-c1ccccc1 | 2.22% |
| CCOc1ccccc1CNC(=O)c1noc2c1CCc1sccc1-2 | -0.12% |
| CSc1ccc(S(=O)(=O)NCc2cccnc2)cc1 | -8.72% |
| COC(=O)c1ccccc1S(=O)(=O)N(CCCN1CCOCC1)Cc1cccs1 | -3.12% |
| CCN(CC)CCn1cnc2c1c(=O)[nH]c(=O)n2Cc1ccccc1 | -1.22% |
| Sc1nc(NCCc2ccccc2Cl)c2ccccc2n1 | 5.74% |
| Cc1cccc(-c2nc3sc(C)cc3c(=O)o2)c1 | -5.15% |
| CCc1cc(C(=O)O)c(NC(=O)/C=C/c2ccc(OC)cc2)s1 | -2.26% |
| Cc1ccc(CN2CCN(Cc3ccco3)CC2)cc1 | -1.55% |
| N#CC1=C(N)Oc2[nH]nc(-c3ccccc3)c2C12C(=O)Nc1ccc(Cl)cc12 (stereo not shown) | 0.746% |
| Cc1ccc(C(=O)Nc2ccc(NC(=O)C(F)(F)F)cc2)cc1 | -6.82% |
| CCOc1ccc(C(=O)NCC(C)C)cc1 | -1.36% |
| O=C(c1cc2nc(-c3cccs3)cc(C(F)(F)F)n2n1)N1CCCCC1 | -4.15% |
| Cc1ccc2nc(NC(=O)c3c(O)c4ccccc4n(C)c3=O)sc2c1 | 11.2% |
| Cc1c2cnn(CC(=O)NCCN3CCCCCC3)c(=O)c2c(C)n1Cc1ccccc1F | -2.17% |
| COc1ccc(-c2nc(-c3cccnc3)[nH]c2-c2ccc(OC)cc2)cc1 | -3.08% |
| CC(CCc1ccc(O)cc1)NCCC1=CCCCC1 (stereo not shown) | 1.57% |
| Cc1ccc(S(=O)(=O)N2CCOCC(=O)NCCOCCNC(=O)COCC2)cc1 | -9.6% |
| N#CC1=C(N)Oc2[nH]nc(-c3ccccc3)c2C1c1ccccc1Cl (stereo not shown) | 4.32% |
| CCc1cc2c(cc3c(=O)n(CC(=O)NCc4ccc5c(c4)OCO5)nc(CC)n32)s1 | 3.29% |

| SMILES | % Inhibition @ 10 uM |
| --- | --- |
| Cc1ccc(C)c(CN2CC(C)OC(C)C2)c1 (stereo not shown) | -4.3% |
| CO/N=C(/C)c1ccc(OCc2ccccc2)cc1 | 0.997% |
| Sc1ccccc1-c1nc(Cc2ccccc2)no1 | 3.44% |
| Cc1nn(C)c(C(=O)NC2C3CC4CC(C3)CC2C4)c1Cl (stereo not shown) | -0.725% |
| Nc1nc(O)c2nccnc2n1 | 1.91% |
| c1ccc(-c2ccc(N3CCCCCC3)nn2)cc1 | 0.51% |
| COc1cccc(-c2cc(C(=O)NCC3CCCO3)on2)c1 (stereo not shown) | -3.27% |
| COc1ccc(-c2nc(-c3ccc(Br)cc3)c(-c3ccccc3Br)[nH]2)cc1 | 4.61% |
| O=C(CCN1CCCC1)Nc1c2c(cc3c1CCC3)CCC2 | 0.163% |
| O=C(c1ccccc1)c1ccc2c(c1)NC=c1c([nH]c(=O)n(-c3ccccc3)c1=O)=N2 | -2.56% |
| O=C(NCc1cccnc1)c1ccc2ccccc2c1 | -9.25% |
| COc1ccc2ccccc2c1C1C(C#N)=C(N)Oc2[nH]nc(C)c21 (stereo not shown) | -2.45% |
| FC(F)(F)c1cc(-c2cccs2)[nH]n1 | 0.558% |
| Clc1cccc(OCCN2CCCCC2)c1 | 0.565% |
| OCCOCCN1CCN(C2CCCCCC2)CC1 | 3.48% |
| C=CCOC(=O)c1cc(-c2ccc(C=C3C(=O)N(C)C(=O)N(C)C3=O)o2)ccc1Cl | 5.94% |
| CCOC(=O)c1cn(C)c(C(=O)OCC)c1O | 1.72% |
| N#CC1=C(N)Oc2c(c(O)nc3ccccc23)C1c1ccncc1 (stereo not shown) | 6.24% |
| COc1cccc(C(=O)Nc2ccc(-c3ccc(NC(=O)c4cccc(OC)c4)cc3)cc2)c1 | 5.85% |
| CSCCC(NC(=O)/C(=C\c1ccco1)NC(=O)c1ccc(Br)cc1)C(=O)O (stereo not shown) | -1.93% |
| CCOc1ccc(-c2csc(-c3cc4c(ccc5ccccc54)oc3=O)n2)cc1 | -5.96% |
| COc1cccc(NC(=O)CN(c2cc(C)ccc2OC)S(=O)(=O)c2ccccc2)c1 | 0.538% and 3.56% |
| Cc1ccsc1CN(C(=O)c1ccccc1F)C1CCS(=O)(=O)C1 (stereo not shown) | 0.569% |
| CCN(CC)C(=O)C1CCCN(Cc2ccc(OC)c(C)c2)C1 (stereo not shown) | -3.87% |
| Cc1onc(-c2ccccc2Cl)c1C(=O)NC1CC1 | 2.36% |
| COc1ccc(-c2cc(C(=O)Nc3c(C)nn(Cc4ccc(C)cc4)c3C)no2)cc1 | -4.79% |

| SMILES | % Inhibition @ 10 uM |
| --- | --- |
| CCN(CC)S(=O)(=O)c1ccc(F)c(C(=O)NCCC(C)C)c1 | -7.57% |
| CC1CC(C)CN(C(=O)C2CCC(CNS(=O)(=O)c3ccc(Br)s3)CC2)C1 (stereo not shown) | -2.56% |
| COCCCNc1cc(C)nc2c(-c3ccc(Cl)cc3)c(C)nn12 | 2.35% |
| O=C(Nc1nccs1)C1CCC(CNS(=O)(=O)c2cccc3nsnc23)CC1 (stereo not shown) | 4.54% |
| CCc1ccc(OCC(=O)NCc2ccc(OC)cc2)c(Br)c1 | 0.83% |
| c1ccc(-c2nnc(N3CCOCC3)nc2-c2ccccc2)cc1 | -1.5% |
| CNS(=O)(=O)c1cn(CC(=O)N2CCN(Cc3ccccc3)CC2)cc1S(=O)(=O)NC | -3.99% |
| CCOc1ccc(-c2cc(NC(=O)Cn3ncc4c(=O)oc5ccc(C)cc5c43)on2)cc1 | -5.25% |
| CC(C)c1ccc(N(CC(=O)N2CCc3ccccc3C2)S(C)(=O)=O)cc1 | 0.472% |
| O=S(=O)(c1ccc(-c2cc(C(F)(F)F)no2)s1)N1CCN(c2ncccn2)CC1 | -2.5% |
| O=C(/C=C/C=C/c1ccccc1)c1ccc(Cl)cc1 | -2.13% |
| COc1ccc2cc3c(N)nn(C(=O)c4cncc(Br)c4)c3nc2c1 | 0.809% |
| Cc1onc(-c2ccccc2Cl)c1C(=O)N1CCN(c2ccccn2)CC1 | 1.84% |
| CC(C)SC1=NSC2=NC(=O)/C(=C\c3ccc4c(c3)OCO4)C(=N)N21 | 1.97% |
| COc1cc(NS(=O)(=O)c2cc(Cl)ccc2OC)c(OC)cc1Cl | -3.95% |
| OC1CCN(Cc2c(Cl)cccc2Cl)CC1 | -0.603% |
| O=S(=O)(c1ccc(Sc2ccc(S(=O)(=O)N3CCOCC3)cc2)cc1)N1CCOCC1 | -6.22% |
| Cc1ccc(CNC(=O)CNS(=O)(=O)c2cccc3nsnc23)cc1 | -5.76% |
| Cc1cc(C)cc(-n2c(C)cc(/C=C3\NC(=O)NC3=O)c2C)c1 | 9.47% |
| C=CCN1C(=O)/C(=C\Nc2ccc(F)cc2)C(=O)N(CCCC)C1=O | -1.06% |
| Cn1nnnc1SCCCNCc1cccs1 | -4.71% |
| Cc1ccccc1NC(=O)CC(=O)c1ccccc1 | -4.58% |
| CC(C)Cc1c(C#N)c(SCC(N)=O)nc2c1CCCC2 | 9.71% |
| CCCC(=O)NCc1ccc(CNC(=O)CCC)cc1 | 3.67% |
| Cc1ccc(-c2nc(CS(=O)(=O)CC(=O)NCCc3c[nH]c4ccccc34)c(C)o2)cc1 | -1.89% |
| COc1ccc(-c2noc(CN3CCC(C(=O)Nc4cccnc4Cl)CC3)n2)cc1OC | 3.43% |

| SMILES | % Inhibition @ 10 uM |
| --- | --- |
| COc1cccc(-c2nn(C)c3sc(C(=O)NCCCN(C)Cc4ccccc4)cc23)c1 | -4.14% |
| CN1CCC(N(C)C2CC3CCC2C3)CC1 (stereo not shown) | 1.29% |
| CSc1ccc(CN2CCN(C(=O)c3ccco3)CC2)cc1 | 0.777% |
| Cc1cc(C)nc(SCC(=O)Nc2ccccc2Cl)n1 | 4.83% |
| O=C(NCc1ccc(Cl)cc1)c1ccco1 | -7.3% |
| O=S(=O)(CCc1nc2ccccc2s1)c1ccc(Br)cc1 | -1.79% |
| NC(=S)Cc1c[nH]c2ccccc12 | -5.51% |
| Cc1ccc(/C=c2/sc3nc4cc(C)c(C)cc4n3c2=O)o1 | 10.9% |
| O=C(c1ccc(CS(=O)(=O)c2c(Cl)cccc2Cl)o1)N1CCN(c2ncccn2)CC1 | 0.718% |
| CN(c1ccc(C(=O)NCc2ccccn2)cc1)S(C)(=O)=O | -3.33% |
| COc1ccc2c(CNCc3cc(OC)c(OC)c(OC)c3)c(C(=O)O)n(C)c2c1 | 3.9% |
| Cc1cc(C)n(Cc2ccc(C(=O)Nc3ccc(C)c(Cl)c3)o2)n1 | 5.79% |
| CC(O)C#CC1(C)CCCC(C)(C)O1 (stereo not shown) | -0.0369% |
| O=C1OC(c2ccccc2F)=N/C1=C\c1cccc(Br)c1 | -3.71% |
| C#CCOc1cc(Br)c(/C=C2/NC(=O)NC2=O)cc1OCC | 0.487% |
| COc1cccc(CNC(=O)CCNS(=O)(=O)c2cccs2)c1 | 1.83% |
| O=c1c2c(-c3ccc([N+](=O)[O-])cc3)csc2nc2n1CCC2 | 5.77% |
| O=c1oc2ccc(Br)cc2cc1-c1nc(-c2ccccc2F)no1 | 0.0147% |
| Cc1cc2nc(NC3=NCN(CCc4ccccc4)CN3)nc(C)c2cc1C | -2.75% |
| CC(C)(C)NC(=O)c1c(F)cccc1F | 1.13% |
| COc1ccc2nc(N3CCCC(C(=O)NCCC4=CCCCC4)C3)sc2c1 (stereo not shown) | -4.65% |
| CSc1cnn(-c2ccccc2)c(=O)c1O | 13.9% |
| COC(=O)c1cc2oc3ccccc3c2n1Cc1nc(-c2ccccc2)oc1C | 1.72% |
| Cc1ccc(/C=C2/C(=N)N3C(=NC2=O)SN=C3S(C)(=O)=O)o1 | 0.163% |
| O=C(NCc1cccs1)c1ccc2c(c1)ncn2C1CCCC1 | -3.12% |
